Results as given in the supplement of paper PMC12067093, “Discovery and optimisation of a covalent ligand for TRIM25 and its application to targeted protein ubiquitination” (Chemical Science, 2025).
The full data set covers some 21,000 targets. This sample favours those with the largest changes.

Compound: Cc1cc(ccc1-c1ccccc1)C(=O)N1CCCN(CC1)C(=O)CCl [compound 10]
Test: probe-labelled cysteine peptide fold change vs DMSO (competition) (log2 fold change); higher = less target engagement (more negative = stronger competition)
Conditions: THP-1, incubation time: 4 h
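Further: competitive profiling in live THP-1 cells: cysteine peptides tagged with an iodoacetamide desthiobiotin (IA-DTB) probe, intensity after compound treatment relative to DMSO-treated cells.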

Chain of UniProt Q6P2P2 (Q6P2P2 whole entry, looked up): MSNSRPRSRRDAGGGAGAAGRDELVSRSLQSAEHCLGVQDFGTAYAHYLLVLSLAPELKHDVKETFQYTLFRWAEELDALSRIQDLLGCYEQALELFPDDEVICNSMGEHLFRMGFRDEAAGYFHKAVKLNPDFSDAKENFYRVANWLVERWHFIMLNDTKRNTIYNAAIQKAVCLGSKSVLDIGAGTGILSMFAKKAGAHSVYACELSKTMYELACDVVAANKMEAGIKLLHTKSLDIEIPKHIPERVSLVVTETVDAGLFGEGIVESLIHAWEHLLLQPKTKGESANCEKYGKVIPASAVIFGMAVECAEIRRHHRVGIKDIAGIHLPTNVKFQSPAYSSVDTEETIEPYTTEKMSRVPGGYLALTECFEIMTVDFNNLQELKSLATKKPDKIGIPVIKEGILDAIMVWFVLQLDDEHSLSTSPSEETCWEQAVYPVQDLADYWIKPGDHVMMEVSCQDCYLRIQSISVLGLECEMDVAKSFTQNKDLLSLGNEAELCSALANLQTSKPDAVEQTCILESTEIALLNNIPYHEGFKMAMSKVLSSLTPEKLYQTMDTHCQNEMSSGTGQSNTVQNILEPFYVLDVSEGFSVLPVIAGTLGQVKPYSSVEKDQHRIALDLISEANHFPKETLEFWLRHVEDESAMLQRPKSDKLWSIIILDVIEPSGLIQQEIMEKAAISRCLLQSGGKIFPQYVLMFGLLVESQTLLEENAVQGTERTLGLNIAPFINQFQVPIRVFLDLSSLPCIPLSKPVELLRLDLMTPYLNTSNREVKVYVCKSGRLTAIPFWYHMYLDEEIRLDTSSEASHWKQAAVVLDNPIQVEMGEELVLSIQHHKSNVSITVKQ
Chain of UniProt Q15269 (Q15269 whole entry, looked up): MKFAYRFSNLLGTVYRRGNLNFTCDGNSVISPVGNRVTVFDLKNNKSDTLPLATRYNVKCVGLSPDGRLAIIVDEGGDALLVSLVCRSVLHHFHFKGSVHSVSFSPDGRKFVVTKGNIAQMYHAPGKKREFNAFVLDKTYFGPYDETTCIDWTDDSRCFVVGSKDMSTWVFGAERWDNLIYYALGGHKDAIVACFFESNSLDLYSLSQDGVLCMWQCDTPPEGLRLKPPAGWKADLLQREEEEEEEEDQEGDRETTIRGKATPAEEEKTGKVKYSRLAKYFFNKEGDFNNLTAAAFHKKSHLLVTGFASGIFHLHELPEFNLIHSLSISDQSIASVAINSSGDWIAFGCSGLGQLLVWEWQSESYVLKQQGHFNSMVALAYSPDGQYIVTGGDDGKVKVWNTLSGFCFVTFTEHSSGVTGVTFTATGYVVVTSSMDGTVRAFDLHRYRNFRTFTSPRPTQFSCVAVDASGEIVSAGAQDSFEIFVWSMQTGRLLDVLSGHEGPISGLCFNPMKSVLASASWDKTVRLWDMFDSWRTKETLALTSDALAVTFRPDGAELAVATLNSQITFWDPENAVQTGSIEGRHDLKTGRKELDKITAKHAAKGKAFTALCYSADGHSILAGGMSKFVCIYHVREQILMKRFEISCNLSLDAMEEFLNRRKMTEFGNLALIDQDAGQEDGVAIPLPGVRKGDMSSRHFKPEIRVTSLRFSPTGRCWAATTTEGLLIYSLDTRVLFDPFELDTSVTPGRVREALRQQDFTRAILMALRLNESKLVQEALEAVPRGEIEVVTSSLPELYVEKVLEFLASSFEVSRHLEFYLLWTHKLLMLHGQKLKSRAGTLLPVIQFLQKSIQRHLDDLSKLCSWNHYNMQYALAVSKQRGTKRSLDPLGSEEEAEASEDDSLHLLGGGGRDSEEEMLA
Chain of UniProt P43487 (P43487 whole entry, looked up): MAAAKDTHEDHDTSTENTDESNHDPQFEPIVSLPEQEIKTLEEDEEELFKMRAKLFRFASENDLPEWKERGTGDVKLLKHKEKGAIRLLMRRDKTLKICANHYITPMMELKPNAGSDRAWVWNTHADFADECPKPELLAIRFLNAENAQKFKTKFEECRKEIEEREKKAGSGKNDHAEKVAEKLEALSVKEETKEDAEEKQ
Chain of UniProt P23469 (P23469 whole entry, looked up): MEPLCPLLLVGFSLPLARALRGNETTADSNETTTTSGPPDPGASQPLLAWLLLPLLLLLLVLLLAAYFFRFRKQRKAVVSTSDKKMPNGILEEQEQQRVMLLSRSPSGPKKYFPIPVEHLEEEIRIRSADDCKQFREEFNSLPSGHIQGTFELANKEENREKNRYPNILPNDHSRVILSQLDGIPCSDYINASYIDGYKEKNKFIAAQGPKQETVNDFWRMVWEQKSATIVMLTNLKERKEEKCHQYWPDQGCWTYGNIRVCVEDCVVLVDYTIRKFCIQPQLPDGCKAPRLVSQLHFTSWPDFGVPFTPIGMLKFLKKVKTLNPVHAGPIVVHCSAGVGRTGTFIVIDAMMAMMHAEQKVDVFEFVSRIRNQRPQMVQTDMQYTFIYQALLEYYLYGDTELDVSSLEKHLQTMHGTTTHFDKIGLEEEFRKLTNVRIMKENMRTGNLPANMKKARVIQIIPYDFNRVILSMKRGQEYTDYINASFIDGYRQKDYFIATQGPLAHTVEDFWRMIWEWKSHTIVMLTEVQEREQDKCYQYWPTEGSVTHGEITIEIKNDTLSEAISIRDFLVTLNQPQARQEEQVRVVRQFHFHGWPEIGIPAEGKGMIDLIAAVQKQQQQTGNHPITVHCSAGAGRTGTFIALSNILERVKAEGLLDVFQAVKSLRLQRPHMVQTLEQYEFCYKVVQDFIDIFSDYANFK
Chain of UniProt P28065 (P28065 whole entry): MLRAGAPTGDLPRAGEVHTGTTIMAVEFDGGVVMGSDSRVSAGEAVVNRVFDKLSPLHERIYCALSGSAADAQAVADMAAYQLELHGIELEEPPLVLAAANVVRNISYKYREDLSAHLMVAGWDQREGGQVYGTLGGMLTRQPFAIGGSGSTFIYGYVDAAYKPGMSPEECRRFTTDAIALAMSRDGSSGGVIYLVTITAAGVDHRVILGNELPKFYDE
Chain of UniProt Q9NWS8 (Q9NWS8 whole entry, looked up): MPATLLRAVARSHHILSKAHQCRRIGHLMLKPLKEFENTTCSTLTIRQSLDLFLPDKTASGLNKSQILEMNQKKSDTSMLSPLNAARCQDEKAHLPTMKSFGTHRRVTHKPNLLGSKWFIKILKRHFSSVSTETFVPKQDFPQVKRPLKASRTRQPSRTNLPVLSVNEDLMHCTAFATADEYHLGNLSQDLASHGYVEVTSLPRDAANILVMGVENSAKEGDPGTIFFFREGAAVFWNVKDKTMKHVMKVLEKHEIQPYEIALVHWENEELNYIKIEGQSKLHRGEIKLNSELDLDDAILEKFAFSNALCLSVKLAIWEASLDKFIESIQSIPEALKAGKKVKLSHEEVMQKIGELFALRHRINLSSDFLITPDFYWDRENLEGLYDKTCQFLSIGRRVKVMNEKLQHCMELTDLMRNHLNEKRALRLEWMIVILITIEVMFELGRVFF
Chain of UniProt Q86TP1 (Q86TP1 whole entry, looked up): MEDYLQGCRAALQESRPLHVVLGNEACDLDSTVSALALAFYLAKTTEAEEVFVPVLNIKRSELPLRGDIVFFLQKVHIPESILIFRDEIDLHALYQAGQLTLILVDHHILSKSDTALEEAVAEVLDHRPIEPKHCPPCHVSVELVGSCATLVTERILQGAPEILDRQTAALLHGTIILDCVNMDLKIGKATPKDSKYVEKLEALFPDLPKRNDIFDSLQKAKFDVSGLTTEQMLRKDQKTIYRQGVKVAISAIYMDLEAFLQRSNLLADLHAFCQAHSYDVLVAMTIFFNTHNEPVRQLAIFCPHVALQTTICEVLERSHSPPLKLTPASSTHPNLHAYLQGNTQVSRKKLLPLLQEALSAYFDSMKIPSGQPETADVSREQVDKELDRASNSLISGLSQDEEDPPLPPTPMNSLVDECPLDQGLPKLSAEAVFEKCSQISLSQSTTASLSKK
Chain of UniProt P35251 (P35251 whole entry, looked up): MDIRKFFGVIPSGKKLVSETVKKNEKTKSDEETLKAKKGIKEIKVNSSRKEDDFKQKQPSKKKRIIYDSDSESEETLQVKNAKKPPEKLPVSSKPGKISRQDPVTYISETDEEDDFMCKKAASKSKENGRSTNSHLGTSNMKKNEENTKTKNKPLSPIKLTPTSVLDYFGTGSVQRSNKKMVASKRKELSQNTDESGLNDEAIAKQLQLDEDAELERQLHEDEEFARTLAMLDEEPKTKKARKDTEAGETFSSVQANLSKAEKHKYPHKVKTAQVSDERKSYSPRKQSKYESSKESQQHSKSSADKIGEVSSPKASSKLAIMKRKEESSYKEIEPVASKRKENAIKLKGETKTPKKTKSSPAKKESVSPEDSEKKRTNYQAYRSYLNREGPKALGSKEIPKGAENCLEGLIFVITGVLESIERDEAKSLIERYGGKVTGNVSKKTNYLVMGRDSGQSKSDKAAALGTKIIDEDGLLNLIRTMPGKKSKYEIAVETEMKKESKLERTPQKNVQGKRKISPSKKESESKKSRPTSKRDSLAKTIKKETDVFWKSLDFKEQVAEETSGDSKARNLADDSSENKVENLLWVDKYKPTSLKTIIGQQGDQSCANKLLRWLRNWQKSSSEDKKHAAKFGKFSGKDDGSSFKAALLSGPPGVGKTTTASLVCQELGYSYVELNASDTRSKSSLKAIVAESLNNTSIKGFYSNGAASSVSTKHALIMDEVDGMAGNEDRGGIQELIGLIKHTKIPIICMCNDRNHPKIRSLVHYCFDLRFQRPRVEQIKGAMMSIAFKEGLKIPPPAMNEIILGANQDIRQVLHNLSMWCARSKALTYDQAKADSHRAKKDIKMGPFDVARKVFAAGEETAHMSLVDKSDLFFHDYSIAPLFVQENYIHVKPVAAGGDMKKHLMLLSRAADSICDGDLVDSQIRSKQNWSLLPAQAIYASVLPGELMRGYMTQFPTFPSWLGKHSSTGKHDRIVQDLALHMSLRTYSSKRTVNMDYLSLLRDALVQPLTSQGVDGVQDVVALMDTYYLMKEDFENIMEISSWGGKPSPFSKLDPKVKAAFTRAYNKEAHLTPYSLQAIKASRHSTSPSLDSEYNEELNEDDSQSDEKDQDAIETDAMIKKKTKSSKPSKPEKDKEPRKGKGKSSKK

Target | probe-labelled cysteine peptide fold change (10 µM) | probe-labelled cysteine peptide fold change (50 µM)
PTGR2_Q8N8N7_187_VVGICGTHEK (UniProt Q8N8N7) | 0.237 | 0.105
PRMT1_Q99873_226_IHWWENVYGFDMSCIK (UniProt Q99873) | 0.104 | -0.0579
RANBP1_P43487_132_AWVWNTHADFADECPKPELLAIR (UniProt P43487) | 0.00233 | -0.0881
PRUNE1_Q86TP1_313_QLAIFCPHVALQTTICEVLER (UniProt Q86TP1) | 0.0245 | 0.0781
RAB11FIP1_Q6WKZ4_1192_VANCSLGTATIISENLNNEVMMK (UniProt Q6WKZ4) | -0.223 | -0.343
RBM25_P49756_110_CGLVLSWK (UniProt P49756) | -0.0205 | 0.193
RECQL_P46063_606_AESSQTCHSEQGDK (UniProt P46063) | -0.0722 | -0.2
PTPRE_P23469_186_VILSQLDGIPCSDYINASYIDGYK (UniProt P23469) | -0.697 | 0.176
PWP2_Q15269_158_CFVVGSK (UniProt Q15269) | 0.0935 | 0.05
RFC1_P35251_822_QVLHNLSMWCAR (UniProt P35251) | 0.12 | 0.32
PSMB9_P28065_171_QPFAIGGSGSTFIYGYVDAAYKPGMSPEECRR (UniProt P28065) | 0.113 | 0.12
PRMT9_Q6P2P2_175_AVCLGSK (UniProt Q6P2P2) | 0.0219 | 0.0347
PTGES3_Q15185_40_LTFSCLGGSDNFK (UniProt Q15185) | 0.0441 | 0.037
RMND1_Q9NWS8_310_FAFSNALCLSVK (UniProt Q9NWS8) | -0.0469 | 0.0287
